Whole data set: some 18,000 sequences, median “TetR repression strength (sort-seq, GFP reporter)” near 0.23, cut for the highest 2% near 0.68. The list shows a part of the results.
Molecular target: TetR (class B, Tn10) (UniProt P04483)
Test: TetR repression strength (sort-seq, GFP reporter) (relative to tetO2 = 1); higher = stronger repression
Settings: E. coli
Method in brief: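 Repression strength is the top bin index plus one minus the read-weighted mean bin, relative to the unaltered operator's value. A low-copy library in E. coli SIG10-MAX randomized eight operator positions between a constitutive promoter and sfGFP, with TetR expressed constitutively; cells grew 5 h at 37 °C in LB with 50 µg/mL chloramphenicol and 10^6 were FACS-sorted into 13 bins that were each Illumina-sequenced. Three independent transformations were averaged, keeping only members with ≥30 reads in all replicates and CV ≤0.5.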

UniProt P04483, sequence (P04483 whole entry): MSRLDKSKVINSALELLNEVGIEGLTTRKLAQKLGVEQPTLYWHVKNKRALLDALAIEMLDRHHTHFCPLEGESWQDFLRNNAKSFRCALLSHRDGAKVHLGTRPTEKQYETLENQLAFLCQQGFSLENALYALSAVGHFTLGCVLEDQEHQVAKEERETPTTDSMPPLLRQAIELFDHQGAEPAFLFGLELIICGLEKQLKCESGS

Row | Sequence | TetR repression strength
1 | TCCCCGAGAGTTTGTGAGA | 0.111
2 | TCCCCCTCAGTTTTTGAGA | 0.357
3 | TCCCCCTGAGTGGAGGAGA | 0.227
4 | TCCCGATCAGTACCAGAGA | 0.238
5 | TCCCTGACAGTAATTGAGA | 0.0305
6 | TCCCGTTCAGTAAGTGAGA | 0.444
7 | TCCCAAACAGTTCGTGAGA | 0.14
8 | TCCCAACTAGTGTGAGAGA | 0.132
9 | TCCCTAGTAGTGCCAGAGA | 0.162
10 | TCCCCGCGAGTTGAAGAGA | 0.335
11 | TCCCTAGAAGTATTAGAGA | 0
12 | TCCCCAGTAGTGGCGGAGA | 0.333
13 | TCCCGGGAAGTCTCAGAGA | 0.187
14 | TCCCTCCTAGTCCTTGAGA | 0.402
15 | TCCCTCGTAGTAGGGGAGA | 0.151
16 | TCCCTCAGAGTTCCAGAGA | 0.313
17 | TCCCTGTCAGTCGGTGAGA | 0.378
18 | TCCCCGTCAGTATTTGAGA | 0.351
19 | TCCCACACAGTGCTTGAGA | 0.187
20 | TCCCTAGTAGTCTTCGAGA | 0.272
21 | TCCCTGCAAGTCTAGGAGA | 0.171
22 | TCCCAAGTAGTATCCGAGA | 0.252
23 | TCCCATACAGTACAAGAGA | 0.288
24 | TCCCAGGAAGTCCTTGAGA | 0.24
25 | TCCCCAACAGTTTGAGAGA | 0.415
26 | TCCCACATAGTCGCCGAGA | 0.421

Row | Sequence | TetR repression strength
27 | TCCCTTCGAGTTTGTGAGA | 0.293
28 | TCCCTTAGAGTGTGGGAGA | 0.0893
29 | TCCCTTTTAGTGCACGAGA | 0.567
30 | TCCCGTCGAGTTATTGAGA | 0.231
31 | TCCCCGCGAGTCGGCGAGA | 0.126
32 | TCCCTGATAGTTAAGGAGA | 0.142
33 | TCCCAGCGAGTAGATGAGA | 0.191
34 | TCCCAGCTAGTGTAAGAGA | 0.197
35 | TCCCTACTAGTGCCGGAGA | 0.263
36 | TCCCCTCAAGTCGAGGAGA | 0.125
37 | TCCCTATGAGTGCTAGAGA | 0.452
38 | TCCCAGGGAGTGAAGGAGA | 0.142
39 | TCCCACACAGTATAGGAGA | 0.311
40 | TCCCAGAGAGTTACGGAGA | 0.252
41 | TCCCGTCTAGTGGGTGAGA | 0.111
42 | TCCCTATCAGTAACAGAGA | 0.539
43 | TCCCACTTAGTGGAGGAGA | 0.174
44 | TCCCTGAAAGTATACGAGA | 0.205
45 | TCCCGGTGAGTATTTGAGA | 0.172
46 | TCCCGGCGAGTTGTGGAGA | 0.229
47 | TCCCGCTGAGTTTTTGAGA | 0.307
48 | TCCCGATAAGTCGGGGAGA | 0.172
49 | TCCCGTGTAGTCAAGGAGA | 0.579
50 | TCCCGGCGAGTAAGAGAGA | 0.232
51 | TCCCGTGGAGTCTGTGAGA | 0.153
52 | TCCCCGGCAGTTTACGAGA | 0.523

Row | Sequence | TetR repression strength
53 | TCCCGGTCAGTGCGGGAGA | 0.289
54 | TCCCTCTAAGTGTTAGAGA | 0.282
55 | TCCCGTGCAGTACATGAGA | 0.14
56 | TCCCGAACAGTATGTGAGA | 0.0646
57 | TCCCAGGCAGTGGTTGAGA | 0.238
58 | TCCCCTCGAGTGGGTGAGA | 0.329
59 | TCCCAAATAGTTGGGGAGA | 0.0447
60 | TCCCTAAGAGTGGTTGAGA | 0.508
61 | TCCCATTTAGTTTAGGAGA | 0.244
62 | TCCCTCGGAGTTGGTGAGA | 0.237
63 | TCCCGATTAGTGGGAGAGA | 0.25
64 | TCCCACCAAGTGAGAGAGA | 0.233
65 | TCCCGTCCAGTCTGCGAGA | 0.337
66 | TCCCGAACAGTGTAAGAGA | 0.292
67 | TCCCATTTAGTGGCCGAGA | 0.261
68 | TCCCAGTCAGTAGTAGAGA | 0.216
69 | TCCCCGGGAGTCCGGGAGA | 0.332
70 | TCCCTGAAAGTCGTTGAGA | 0.186
71 | TCCCGTGTAGTACTCGAGA | 0.244
72 | TCCCTTTCAGTTAAAGAGA | 0.442
73 | TCCCCTCGAGTGTGGGAGA | 0.239
74 | TCCCTCCCAGTTGGAGAGA | 0.26
75 | TCCCTGATAGTATGTGAGA | 0.125
76 | TCCCATCAAGTTGACGAGA | 0.0444
77 | TCCCTGCGAGTGGTGGAGA | 0.112
78 | TCCCTTATAGTAGCGGAGA | 0.21

Row | Sequence | TetR repression strength
79 | TCCCACCTAGTATATGAGA | 0.466
80 | TCCCGCCGAGTTGCGGAGA | 0.372
81 | TCCCGGGGAGTTGGTGAGA | 0.239
82 | TCCCGTTGAGTGCGGGAGA | 0.441
83 | TCCCTGTGAGTTGGGGAGA | 0.189
84 | TCCCCGCAAGTAGCGGAGA | 0.188
85 | TCCCAGAGAGTTATGGAGA | 0.155
86 | TCCCACCTAGTGAGCGAGA | 0.304
87 | TCCCACTGAGTGAGAGAGA | 0.473
88 | TCCCGCAGAGTGTGGGAGA | 0.134
89 | TCCCTGATAGTTTTTGAGA | 0.233
90 | TCCCTAGCAGTGTTCGAGA | 0.319
91 | TCCCTCGAAGTGGGCGAGA | 0.116
92 | TCCCTCCCAGTGATAGAGA | 0.561
93 | TCCCTATCAGTGCCTGAGA | 0.467
94 | TCCCGAGAAGTGGAAGAGA | 0.257
95 | TCCCGTCTAGTCATCGAGA | 0.488
96 | TCCCTGACAGTTCGCGAGA | 0.263
97 | TCCCGGTCAGTTTAGGAGA | 0.27
98 | TCCCAGTTAGTTTATGAGA | 0.198
99 | TCCCGGATAGTTAGCGAGA | 0.326
100 | TCCCATGGAGTCCAGGAGA | 0.0821
101 | TCCCCGATAGTCGACGAGA | 0.0424
102 | TCCCGTTTAGTCCGGGAGA | 0.119
103 | TCCCTAGCAGTTGCAGAGA | 0.275
104 | TCCCTATCAGTGGATGAGA | 0.64

Row | Sequence | TetR repression strength
105 | TCCCGGTAAGTGTTAGAGA | 0.561
106 | TCCCTAGTAGTGTTCGAGA | 0.273
107 | TCCCGGACAGTAAAGGAGA | 0.345
108 | TCCCATCGAGTGGAGGAGA | 0.155
109 | TCCCGAGGAGTGCTCGAGA | 0.126
110 | TCCCTAGGAGTACGGGAGA | 0.241
111 | TCCCGCTTAGTAAAGGAGA | 0.243
112 | TCCCGGTCAGTCGAAGAGA | 0.278
113 | TCCCGTATAGTCTGTGAGA | 0.0605
114 | TCCCCTCGAGTTGAGGAGA | 0.19
115 | TCCCTTTCAGTGTTTGAGA | 0.382
116 | TCCCGGGTAGTCCTGGAGA | 0.22
117 | TCCCGCCAAGTAGGGGAGA | 0.194
118 | TCCCAGTCAGTAGGGGAGA | 0.497
119 | TCCCTAGAAGTGCCGGAGA | 0.0889
120 | TCCCACTAAGTTGGTGAGA | 0.339
121 | TCCCATTGAGTGCGTGAGA | 0.164
122 | TCCCCTCTAGTGTAAGAGA | 0.155
123 | TCCCGGGAAGTCGTTGAGA | 0.207
124 | TCCCGATCAGTTAGGGAGA | 0.313
125 | TCCCACGGAGTTACGGAGA | 0.224
126 | TCCCAAAGAGTTTCGGAGA | 0.191
127 | TCCCGACGAGTACAGGAGA | 0.196
128 | TCCCGGTCAGTCTTGGAGA | 0.281
129 | TCCCATCGAGTGGGGGAGA | 0.207
130 | TCCCAGAGAGTTTGGGAGA | 0.202

From a collection of fitness landscapes (doi:10.1038/s41467-024-54723-y)
